According to PubChem BioAssay AID1030 (National Center for Advancing Translational Sciences (NCATS), 2008):
Among all 220,000 compounds or so, about 16,000 (7.3%) were called active. The inconclusive results got no clear call from the source; some entries with a clear call stand among them for comparison. Calls come from the whole dose curve; as a rule, active = well fitted inhibition curve with a large enough effect (not every such curve was filed as active); inconclusive = small, poorly fitted or top-dose-only effect, or another doubt; inactive = no such curve, though single readings can be large or run the other way. Potencies of inconclusive entries are left out as doubtful fits.

What follows are compounds tested against Aldehyde dehydrogenase 1A1 (Homo sapiens) (UniProt P00352) (assay: qHTS Assay for Inhibitors of Aldehyde Dehydrogenase 1 (ALDH1A1)). Settings: Purified ALDH1A1, NADH fluorescence, propionaldehyde substrate; series mostly up to 75.3 µM; activity, negative = inhibition: at the top concentration.
UniProt P00352, sequence (P00352 whole entry, looked up): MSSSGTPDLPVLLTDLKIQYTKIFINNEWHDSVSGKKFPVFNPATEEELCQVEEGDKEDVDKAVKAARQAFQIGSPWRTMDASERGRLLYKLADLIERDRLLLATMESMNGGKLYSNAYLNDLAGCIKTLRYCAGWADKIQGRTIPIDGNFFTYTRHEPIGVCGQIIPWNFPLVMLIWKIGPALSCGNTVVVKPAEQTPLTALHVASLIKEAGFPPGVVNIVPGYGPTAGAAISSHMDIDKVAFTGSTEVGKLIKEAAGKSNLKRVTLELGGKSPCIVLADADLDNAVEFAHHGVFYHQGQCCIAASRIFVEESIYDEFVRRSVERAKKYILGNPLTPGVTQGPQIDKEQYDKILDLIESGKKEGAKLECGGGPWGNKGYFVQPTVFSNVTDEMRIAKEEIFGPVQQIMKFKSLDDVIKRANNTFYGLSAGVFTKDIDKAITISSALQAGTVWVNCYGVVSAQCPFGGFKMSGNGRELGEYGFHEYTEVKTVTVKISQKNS
Potency is the fitted concentration of half-maximal effect; tags give direction and shape of the fitted curve.
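Throughout, for activity, negative = inhibition: plate controls were no enzyme wells and a reference inhibitor.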

| Compound | Potency | activity, negative = inhibition |
| --- | --- | --- |
| O=C(N/N=C/c1ccco1)C12CC3CC(CC(C3)C1)C2 | inconclusive [inhibitor, single point] | – |
| Cc1ccc(/C(C#N)=C\c2ccc(N3CCOCC3)o2)cc1 | active: 10 µM | – |
| Cc1cccc2c(=O)cc(C)n(CC(=O)N3CCCCC3)c12 | inconclusive [inhibitor, single point] | – |
| COCCNC(=O)CSc1nc2cc3c(cc2c(=O)n1Cc1ccco1)OCO3 | active: 12.6 µM | – |
| CC(=O)Nc1ccc(S(=O)(=O)N2CCN(Cc3cccnc3)CC2)cc1 | inconclusive [inhibitor, partial curve] | – |
| CC(C)CC(NC(=O)CCl)c1ccccc1 (stereo not drawn) | inconclusive [inhibitor, single point] | – |
| CCCCn1c(=O)[nH]c(=O)c2c1nc(-c1ccncc1)n2CCOC | inconclusive [inhibitor, single point] | – |
| COc1ccc(N(CC(=O)N2CCCCC2)S(=O)(=O)c2ccccc2)c(OC)c1 | inconclusive [inhibitor, single point] | – |
| C/C(=N\NC(=S)NCc1ccccc1)c1ccc(Cl)s1 | inconclusive [inhibitor, single point] | – |
| O=c1cnnc(NCc2ccccc2)[nH]1 | – | inactive: -8.28% |
| COc1ccc(-c2csc3c2[N+]2=CCC=C2C3=O)cc1 | – | inactive: -10% [at 13.5 µM] |
| COc1ccc(Cn2c(N)c(S(=O)(=O)c3cccs3)c3nc4ccccc4nc32)cc1 | inconclusive [inhibitor, partial curve] | – |
| C/C(=N/NC(=O)CNc1ccc(C)cc1)c1ccc(Cl)cc1 | inconclusive [inhibitor, single point] | – |
| COc1ccc(C(=O)CCN2CCCCCC2)cc1 | active: 0.0631 µM | – |
| NC(=O)c1ccc(-n2nnnc2SCC(=O)Nc2ccc(N3CCOCC3)c(Cl)c2)cc1 | inconclusive [inhibitor, single point] | – |
| O=C1CC(c2ccco2)CC(O)=C1C=Nc1cc(Cl)ccc1O (stereo not drawn) | inconclusive [inhibitor, partial curve] | – |
| N#CCc1ccc(C(=O)c2ccccc2)s1 | inconclusive [inhibitor, full curve] | – |
| CCSc1c(C(=O)NC)ccc2c1C(=O)c1ccccc1C2=O | inconclusive [inhibitor, single point] | – |
| c1ccc(Cn2nnc3c(NCC4CCCO4)nc(C4CC4)nc32)cc1 (stereo not drawn) | inconclusive [inhibitor, single point] | – |
| O=C(Nc1ccc(F)cc1)C1=CC(=O)N2CCN=C2S1 | active: 15.8 µM | – |
| Cc1cc(C)n(CC(O)Cn2c3ccc(Cl)cc3c3cc(Cl)ccc32)c(=O)n1 (stereo not drawn) | inconclusive [inhibitor, single point] | – |
| CC1(C)NC(=O)N(CCCCSc2ccc(Cl)cc2)C1=O | inconclusive [inhibitor, partial curve] | – |
| COc1ccc2ccccc2c1C1CC(=O)N2CN(C3CCCCC3)CSC2=C1C#N (stereo not drawn) | active: 28.2 µM | – |
| COc1ccc(/C=N/NC(=O)c2ccncc2)cc1COc1ccc(NC(C)=O)cc1 | – | inactive: -9.31% |

| Compound | Potency | activity, negative = inhibition |
| --- | --- | --- |
| COc1ccccc1CCc1nnc(CCC(=O)N(C)Cc2cccc3ncccc23)o1 | – | inactive: 6.38% |
| CC(C)OC(=O)c1ccc(NC(=O)Cn2c(-c3nonc3N)nc3ccccc32)cc1 | active: 22.4 µM | – |
| COc1ccc(CNC(=S)Nc2ccccc2-c2ccccc2)cc1 | active: 22.4 µM | – |
| Cc1cccc2sc(NC(=O)CN3C(=O)c4ccccc4C3=O)nc12 | – | inactive: 10.1% |
| O=C(/C=N/O)NCCCn1ccnc1 | inconclusive [inhibitor, single point] | – |
| C=CCNC(=O)CN1C(=O)C2C3c4ccccc4C(c4ccccc43)C2C1=O (stereo not drawn) | – | inactive: 5.07% |
| COCCn1c(SCC(=O)NCc2ccc3c(c2)OCO3)nc2ccccc2c1=O | – | inactive: 15% |
| CN(C)c1ccc(N/C(=N\S(=O)(=O)c2cccs2)c2ccccc2)cc1 | inconclusive [inhibitor, partial curve] | – |
| CCn1nc(C)c(CNC(=O)CCc2nnc(-c3ccc(C(C)=O)s3)o2)c1C | active: 31.6 µM | – |
| Cn1cc(Cl)c(C(=O)NNC(=S)NC2CCCCC2)n1 | – | inactive: 5.22% |
| CCOC(=O)C1(CCCc2ccccc2)CCN(C(=O)C2CCCN(C(N)=O)C2)CC1 (stereo not drawn) | inconclusive [inhibitor, partial curve] | – |
| CCN1c2ccccc2N(C)C1(C)c1ccccc1 (stereo not drawn) | – | inactive: -7.02% |
| CCOC(=O)N1CCC(N2C(=O)c3ccccc3C2Nc2ccc3c(C)cc(=O)oc3c2)CC1 (stereo not drawn) | inconclusive [inhibitor, partial curve] | – |
| CN(C)S(=O)(=O)c1cccc(NC(=O)COC(=O)C2(c3ccccc3F)CCCC2)c1 | inconclusive [inhibitor, single point] | – |
| COc1ccc(N2C(=O)[C@@H]3[C@H](C2=O)[C@H]2c4ccccc4C=CN2[C@@H]3C(=O)Nc2ccccc2)cc1 | active: 25.1 µM | – |
| CN(C1CCCCC1)S(=O)(=O)c1ccc(NC(=O)C2CCCCC2)cc1 | – | inactive: -12.5% |
| CCC(=O)N1CCN(c2ccc(NC(=O)c3ccc(N4CCCC4)c([N+](=O)[O-])c3)cc2)CC1 | – | inactive: -14.5% |
| COc1ccc(/C=C2/SC(=O)N(CC(O)Cn3c4ccccc4c4ccccc43)C2=O)cc1 (stereo not drawn) | inconclusive [inhibitor, single point] | – |
| O=C(NCc1ccc(F)cc1)C(=O)NCC1OCCN1S(=O)(=O)c1cccs1 (stereo not drawn) | – | inactive: -9.78% |
| O=C1NC(c2ccc(-c3ccccc3[N+](=O)[O-])o2)C(C(=O)c2ccc(Cl)cc2)C(O)(C(F)(F)F)N1 (stereo not drawn) | active: 20 µM | – |
| CCOc1cc(C(C#N)N2CCCCC2)ccc1OC (stereo not drawn) | inconclusive [inhibitor, single point] | – |
| CCCC(=O)Nc1cnc(NC(=O)c2cccc(F)c2)cc1C | inconclusive [inhibitor, single point] | – |
| CC1(C)CC(=O)C(C=NCCO)=C(O)C1 | – | inactive: 14.3% |
| Cc1ccc2c(c1)c1c(n2CC(O)Cn2nc(C)c(Br)c2C)CCCC1 (stereo not drawn) | inconclusive [inhibitor, partial curve] | – |
